{"source": "PubChem BioAssay AID485294", "about": "(National Center for Advancing Translational Sciences (NCATS), 2010)", "note": "Hit rate of the full screen: of about 370,000 compounds, about 150 (0.041%) were called active. This list was built around the results that the source calls inconclusive (neither active nor inactive); the mix of calls is not that of the screen. Calls come from the whole dose curve; as a rule, active = well fitted inhibition curve with a large enough effect; inconclusive = small, poorly fitted or top-dose-only effect; inactive = flat fitted curve, though single readings scatter. No potency is given beside an inconclusive call; the fits are too rough. Potency is the fitted concentration of half-maximal effect; tags give direction and shape of the fitted curve."}
{"biological_target": "Beta-lactamase (Escherichia coli (strain K12)) (UniProt P00811)", "sequence (P00811 whole entry, looked up)": "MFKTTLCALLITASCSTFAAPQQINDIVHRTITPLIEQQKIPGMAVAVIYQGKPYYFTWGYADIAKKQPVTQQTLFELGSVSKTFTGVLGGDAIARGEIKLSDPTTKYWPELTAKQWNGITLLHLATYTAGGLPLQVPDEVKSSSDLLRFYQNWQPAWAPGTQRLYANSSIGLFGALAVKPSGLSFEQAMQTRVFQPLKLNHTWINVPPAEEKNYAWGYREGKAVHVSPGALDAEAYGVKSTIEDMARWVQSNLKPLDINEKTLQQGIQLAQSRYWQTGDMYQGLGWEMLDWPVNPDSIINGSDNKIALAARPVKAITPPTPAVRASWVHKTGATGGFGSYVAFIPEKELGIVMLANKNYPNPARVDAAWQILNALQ", "assay": "qHTS Inhibitors of AmpC Beta-Lactamase (assay with detergent); note: nearly all actives have a fitted effect of over 25% in size;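 for activity change, negative = inhibition: 0% = no-compound wells and -100% = no-enzyme wells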", "settings": "AmpC hydrolysis of nitrocefin, absorbance 480 nm, 0.01% Triton; activity change, negative = inhibition: at 114 µM (top of the series)", "summary_of_the_method": "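AmpC (5.3 nM in the dispensed reagent) in 20 mM phosphate pH 7.0 with 0.01% (detergent screen) or 0.0001% Triton X-100 was preincubated with compounds for 15 min at room temperature. Nitrocefin was then added from an 800 uM solution, and hydrolysis was followed at 480 nm.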"}
{"smiles": "CCCn1c(SCC(=O)Nc2nc3c(s2)CCCC3)nc2c1c(=O)n(C)c(=O)n2C", "Potency": "inconclusive [inhibitor, full curve, poor fit]"}
{"smiles": "CCCN(CC(=O)Nc1ccc(F)c(F)c1F)C(=O)Cc1ccc(S(=O)(=O)N2CCOCC2)s1", "activity change, negative = inhibition": "inactive: -3.61%"}
{"smiles": "COc1ccc(-n2c(SCC(=O)Nc3nccs3)nc3c(c2=O)SC(C)C3)cc1", "note": "(stereo not drawn)", "Potency": "inconclusive [inhibitor, full curve, poor fit]"}
{"smiles": "Cc1nc2cc(N3CCOCC3)c(NC(=O)C3CC3)cc2c(=O)n1Cc1ccccc1", "Potency": "inconclusive [inhibitor, partial curve, poor fit]"}
{"smiles": "COc1ccc(C)cc1NC(=O)c1c(C(=O)Nc2cccc(C)c2C)sc2nc(C)cc(=O)n12", "activity change, negative = inhibition": "inactive: -2.33%"}
{"smiles": "COc1cc(/C=C(\\NC(=O)c2ccccc2)C(=O)Nc2cccc(O)c2)c([N+](=O)[O-])cc1OC", "Potency": "inconclusive [inhibitor, partial curve]"}
{"smiles": "COc1ccc(CCNC(=O)Cn2cnc3ccccc3c2=O)cc1OC", "Potency": "inconclusive [inhibitor, single point]"}
{"smiles": "Cc1ccc(Cn2cc(SCC(=O)Nc3nccs3)c3ccccc32)cc1", "Potency": "inconclusive [inhibitor, full curve]"}
{"smiles": "COC(=O)c1ccc(COc2ccc(C=O)cc2)o1", "activity change, negative = inhibition": "inactive: 2.89%"}
{"smiles": "COc1cc(COc2ccc3c(C)c(Cc4ccccc4)c(=O)oc3c2C)cc(OC)c1OC", "Potency": "inconclusive [inhibitor, full curve, poor fit]"}
{"smiles": "CC#CC(=O)N1CCC(CCC(=O)N(C)Cc2ccccc2)CC1", "activity change, negative = inhibition": "inactive: -11.3%"}
{"smiles": "CC[C@@H]1[C@H]2CCCC(=O)N3CC[C@@H](C[C@@H]1Nc1ccccc1)[C@@H]23", "Potency": "inconclusive [inhibitor, full curve, poor fit]"}
{"smiles": "COc1ccc(OC)c(C(=O)CSc2nc3ncccc3[nH]2)c1", "Potency": "inconclusive [inhibitor, full curve, poor fit]"}
{"smiles": "Cc1nn(Cc2ccc(C(=O)Nc3ccccc3C(F)(F)F)o2)c(C)c1Br", "Potency": "inconclusive [inhibitor, full curve, poor fit]"}
{"smiles": "CSc1nc2sc3c(c2c(=O)[nH]1)CCC3", "Potency": "inconclusive [inhibitor, partial curve]"}
{"smiles": "CCOC(=O)C1(CC/C(C)=N\\NC(N)=O)CC(C)(C)OC1=O", "note": "(stereo not drawn)", "Potency": "inconclusive [inhibitor, partial curve]"}
{"smiles": "Cc1ccc(-n2c(=O)c(C#N)cc3c(=O)n4ccccc4nc32)cc1C", "Potency": "inconclusive [inhibitor, full curve, poor fit]"}
{"smiles": "COc1cc(NC(=O)c2ccc3c(c2)OCCO3)ccc1NC(=O)c1ccco1", "activity change, negative = inhibition": "inactive: 3.02%"}
{"smiles": "Cc1ccc(NN=C2c3ccccc3-c3ccccc32)cc1", "Potency": "inconclusive [inhibitor, single point]"}
{"smiles": "CCCC(=O)NC(c1ccc(C(C)C)cc1)c1ccc2cccnc2c1O", "note": "(stereo not drawn)", "Potency": "inconclusive [inhibitor, full curve, poor fit]"}
{"smiles": "CCC(Sc1n[nH]c(=O)[nH]c1=O)C(=O)OCc1ccccc1", "note": "(stereo not drawn)", "activity change, negative = inhibition": "inactive: -0.965%"}
{"smiles": "COc1cc(OC)cc(C(=O)N[C@H](C(=O)OCC(=O)c2ccc3c(c2)NC(=O)CO3)C(C)C)c1", "activity change, negative = inhibition": "inactive: -8.18%"}
{"smiles": "COc1cccc(N2CCN(CC(=O)Nc3ccc(S(=O)(=O)N4CCCCCC4)cc3)CC2)c1", "Potency": "inconclusive [inhibitor, full curve, poor fit]"}
{"smiles": "COc1ccc(CN2CCC(N(CCc3ccccc3)Cc3ccccc3)CC2)c(OC)c1", "Potency": "inconclusive [inhibitor, full curve, poor fit]"}
{"smiles": "Cc1ccc(CNC(=O)/C=C/c2c(Cl)cccc2Cl)cc1", "Potency": "inconclusive [inhibitor, partial curve, poor fit]"}
{"smiles": "O=C(OC[C@H]1O[C@@H](OC(=O)c2cc(O)c(O)c(OC(=O)c3cc(O)c(O)c(O)c3)c2)[C@H](OC(=O)c2cc(O)c(O)c(OC(=O)c3cc(O)c(O)c(O)c3)c2)[C@@H](OC(=O)c2cc(O)c(O)c(OC(=O)c3cc(O)c(O)c(O)c3)c2)[C@@H]1OC(=O)c1cc(O)c(O)c(OC(=O)c2cc(O)c(O)c(O)c2)c1)c1cc(O)c(O)c(OC(=O)c2cc(O)c(O)c(O)c2)c1", "Potency": "inconclusive [inhibitor, full curve]"}
{"smiles": "O=C(CN1CCc2ccccc2C1)Nc1ccc(Br)cc1", "Potency": "inconclusive [inhibitor, partial curve]"}
{"smiles": "O=S(=O)(c1ccccc1)c1nnn2c1nc(N1CCN(c3ccccc3)CC1)c1cc(Cl)ccc12", "activity change, negative = inhibition": "inactive: -6.85%"}
{"smiles": "Oc1ccc(N=C/C=C/c2cccc(Br)c2)cc1-c1nc2ccccc2s1", "Potency": "inconclusive [inhibitor, partial curve]"}
{"smiles": "COc1ccc(C)cc1NC(=O)CN1CCN(S(=O)(=O)c2ccc(C(C)C)cc2)CC1", "Potency": "inconclusive [inhibitor, partial curve]"}
{"smiles": "Cc1ccc(NC(=O)CN2C(=O)CSc3ccc(S(=O)(=O)N(C)C)cc32)c(C)c1", "activity change, negative = inhibition": "inactive: -7.49%"}
{"smiles": "Cc1nn(-c2ccccc2)c(N2CCCC2)c1/C=N/NC(=S)Nc1ccccc1C(F)(F)F", "Potency": "inconclusive [inhibitor, full curve]"}
{"smiles": "O=C(O)CC(c1ccccc1)n1cnnn1", "note": "(stereo not drawn)", "Potency": "inconclusive [inhibitor, partial curve, poor fit]"}
{"smiles": "COc1cc(C(=O)NC2CC3CCCC(C2)N3C2CC2)cc(OC)c1OC", "note": "(stereo not drawn)", "Potency": "inconclusive [inhibitor, partial curve, poor fit]"}
{"smiles": "Cc1ccc(N/N=C(/Sc2nnnn2-c2ccccc2)C(=O)c2ccccc2)cc1", "Potency": "active: 35.5 µM"}
{"smiles": "CCN(CC)CC(=O)NC1CC(C)(C)Cc2c1cnn2-c1ccc(F)cc1", "note": "(stereo not drawn)", "Potency": "inconclusive [inhibitor, full curve, poor fit]"}
{"smiles": "CC(C)(C)NC1=CC(=O)OC12CCCCC2", "Potency": "inconclusive [inhibitor, full curve, poor fit]"}
{"smiles": "CCC(Cc1ccccc1)NC(=O)CCS(=O)(=O)c1cc2c(cc1Cl)NC(=O)CO2", "note": "(stereo not drawn)", "activity change, negative = inhibition": "inactive: 17.7%"}
